The source gives no read counts; variants with many changes may rest on few reads.
B1: OR4K15 (parent)
chain: GUUAACGGUCAUAGGCCAUGGAAACUAGGAGCACCAUUUCGCUGCCAGUGAAGAAAUGAACAAAGAAAAUCUGGGCCAGGCAGGCAUCAAAAGAAAUAGUCUUGCGCUCAACCAGAAAGUCUGUAAUCAUUUUAAGGGUA

Variants of: B1
Assay: self-cleavage, relative activity (ratio to wild type); higher = more cleavage; in vitro, sequencing; the parent is a self-cleaving ribozyme
For A67G U70C A86C, the self-cleavage was 0.38.
A62G A111G A118U gave a self-cleavage of 0.
With A67G A82G U103C the self-cleavage was 2.32.
For A62G A66U U127C, the self-cleavage was 0.64.
For A62G A98G A129G, the self-cleavage was 0.25.
With C61U A68G C76A A125G the self-cleavage was 0.06.
For A64U A92G U132C, the self-cleavage was 0.45.
A60G A82U U108C A129G U130C showed a self-cleavage of 0.01.
For A67U U70C A82U A89C A110G U127C U130C, the self-cleavage was 0.01.
Work on A60G A64G A86G yielded a self-cleavage of 1.1.
A66C A91G U102C gave a self-cleavage of 2.3.
With A60G U100A U120C the self-cleavage was 0.34.
With A60G A67G A82G U100C the self-cleavage was 1.14.
A60G U100A A116G gave a self-cleavage of 0.32.
Work on A66G U122A A140G yielded a self-cleavage of 1.93.
Variant A62G A94G A114G has a self-cleavage of 0.53.
For C61G U97C U102C, the self-cleavage was 2.24.
Variant A62G A64G A89U A90G A126G U130C has a self-cleavage of 0.52.
Work on A62G A68G A114G A129U yielded a self-cleavage of 0.05.
A63U U70C C77U U87C showed a self-cleavage of 2.09.
A60G A91G G104U showed a self-cleavage of 0.01.
For A64G A89G A125G, the self-cleavage was 0.36.
With A68G A82G A96G the self-cleavage was 0.66.
In the case of A60G A89G A94G C112U, the self-cleavage is reported as 0.04.
With A60G A63U A68G A86G the self-cleavage was 0.18.
A67G A114G A116G A118G showed a self-cleavage of 0.02.
A66G U102C A118G gave a self-cleavage of 1.41.
Variant A63G A69G A78C has a self-cleavage of 0.36.
Work on A62G A95G U139C A140G yielded a self-cleavage of 2.11.
A63G A67U A140G showed a self-cleavage of 1.5.
Work on A60U U103C U120C yielded a self-cleavage of 0.55.
For A62U A89G U127A, the self-cleavage was 2.9.
A66G A68G U87C U132A showed a self-cleavage of 1.46.
In the case of A60G A95G U97C U122C, the self-cleavage is reported as 0.48.
For A62U A96G A114G, the self-cleavage was 0.81.
A62G A94U A96G A118G gave a self-cleavage of 0.11.
With A64G A67G U122A the self-cleavage was 0.61.
In the case of A62G A68G U87C A110G, the self-cleavage is reported as 0.09.
With A60G A63G A68G the self-cleavage was 2.06.
A63G A94G U102C gave a self-cleavage of 1.51.
In the case of A60U A98G U100C, the self-cleavage is reported as 1.53.
Variant A60C G65A U100C U120C has a self-cleavage of 2.12.
Variant A62G A111G U122C has a self-cleavage of 0.
For A64U U87C A111G A116G, the self-cleavage was 0.01.
For A60G A67G U100C, the self-cleavage was 2.12.
Variant A62G U102C U108C has a self-cleavage of 0.02.
In the case of A60U U87C A126U U127C, the self-cleavage is reported as 0.27.
A64G U103C U108C U127C A129G gave a self-cleavage of 0.
A67G U102A A117G gave a self-cleavage of 1.48.
A62G A69G U120C showed a self-cleavage of 1.03.
With A60G A91G A126U U139A the self-cleavage was 0.76.
Variant A67G U131C U132C has a self-cleavage of 2.22.
In the case of A67C A69U A114G, the self-cleavage is reported as 0.64.
For A64G A67G U130C, the self-cleavage was 0.73.
With A63G U122A U133C the self-cleavage was 1.35.
G65U U102C A111G gave a self-cleavage of 0.
With A62G A78U A91G the self-cleavage was 0.1.
In the case of A64U U87C U100C, the self-cleavage is reported as 2.85.
Work on A62G A68G U122C yielded a self-cleavage of 0.83.
Work on A66G A86G A118G yielded a self-cleavage of 0.55.
A66G U70C U131C gave a self-cleavage of 0.22.
With A63U U72C A129G the self-cleavage was 0.13.
A63G A78G U131A gave a self-cleavage of 0.27.
A68G A82G A111G U122A showed a self-cleavage of 0.05.
For A67C A116G U133A, the self-cleavage was 0.91.
For A66G A116G A140G, the self-cleavage was 1.06.
For C61U A86C U127C, the self-cleavage was 0.5.
For A66G A89G U132C, the self-cleavage was 1.3.
A62U A66G U130C showed a self-cleavage of 0.69.
Variant A62G A63G C76U A78G has a self-cleavage of 0.31.
Variant A63G A69G A91U A116G A117G has a self-cleavage of 0.18.
With A62G A90U A94G the self-cleavage was 1.11.
Work on A62U A117G U120C yielded a self-cleavage of 1.02.
For A66G A95G A134G, the self-cleavage was 2.38.
Variant A60G A86G U87C G104A A110C has a self-cleavage of 0.
In the case of A63G U100C U132C, the self-cleavage is reported as 2.47.
A62G A96G G99U U100C U108C A110G showed a self-cleavage of 0.
For A67G A91G U103C U132C, the self-cleavage was 0.64.
In the case of A64U A111G A129G, the self-cleavage is reported as 0.01.
A60G A64G G73A U139C showed a self-cleavage of 0.11.
For A67G A68U U102A A116G, the self-cleavage was 0.23.
A67C A94G A114G A116G gave a self-cleavage of 0.4.
A60G A68G A118U showed a self-cleavage of 0.58.
Variant A60G A68G U102C has a self-cleavage of 1.4.

Reference: the RNAGym collection of RNA variant scans (doi:10.7554/elife.90254)
